# Measured values taken from article PMC4336329 (PLoS ONE, 2015).
# Hit rate of the full screen: of about 310,000 compounds, about 2,200 (0.71%) showed an effect of 50% or more. Effects have a minus sign here. The list shows a part of the results. Where a SMILES comes first, the peptide text is derived from it. The star is where a group is joined. Boc = CC(C)(C)OC(=O)*
# Molecular target: human ether-à-go-go-related gene (hERG) potassium channel (human, UniProt Q12809)
# Test: primary screen, population patch clamp on CHO cells stably expressing hERG
# Sequence of human ether-à-go-go-related gene (hERG) potassium channel (Q12809 whole entry, looked up): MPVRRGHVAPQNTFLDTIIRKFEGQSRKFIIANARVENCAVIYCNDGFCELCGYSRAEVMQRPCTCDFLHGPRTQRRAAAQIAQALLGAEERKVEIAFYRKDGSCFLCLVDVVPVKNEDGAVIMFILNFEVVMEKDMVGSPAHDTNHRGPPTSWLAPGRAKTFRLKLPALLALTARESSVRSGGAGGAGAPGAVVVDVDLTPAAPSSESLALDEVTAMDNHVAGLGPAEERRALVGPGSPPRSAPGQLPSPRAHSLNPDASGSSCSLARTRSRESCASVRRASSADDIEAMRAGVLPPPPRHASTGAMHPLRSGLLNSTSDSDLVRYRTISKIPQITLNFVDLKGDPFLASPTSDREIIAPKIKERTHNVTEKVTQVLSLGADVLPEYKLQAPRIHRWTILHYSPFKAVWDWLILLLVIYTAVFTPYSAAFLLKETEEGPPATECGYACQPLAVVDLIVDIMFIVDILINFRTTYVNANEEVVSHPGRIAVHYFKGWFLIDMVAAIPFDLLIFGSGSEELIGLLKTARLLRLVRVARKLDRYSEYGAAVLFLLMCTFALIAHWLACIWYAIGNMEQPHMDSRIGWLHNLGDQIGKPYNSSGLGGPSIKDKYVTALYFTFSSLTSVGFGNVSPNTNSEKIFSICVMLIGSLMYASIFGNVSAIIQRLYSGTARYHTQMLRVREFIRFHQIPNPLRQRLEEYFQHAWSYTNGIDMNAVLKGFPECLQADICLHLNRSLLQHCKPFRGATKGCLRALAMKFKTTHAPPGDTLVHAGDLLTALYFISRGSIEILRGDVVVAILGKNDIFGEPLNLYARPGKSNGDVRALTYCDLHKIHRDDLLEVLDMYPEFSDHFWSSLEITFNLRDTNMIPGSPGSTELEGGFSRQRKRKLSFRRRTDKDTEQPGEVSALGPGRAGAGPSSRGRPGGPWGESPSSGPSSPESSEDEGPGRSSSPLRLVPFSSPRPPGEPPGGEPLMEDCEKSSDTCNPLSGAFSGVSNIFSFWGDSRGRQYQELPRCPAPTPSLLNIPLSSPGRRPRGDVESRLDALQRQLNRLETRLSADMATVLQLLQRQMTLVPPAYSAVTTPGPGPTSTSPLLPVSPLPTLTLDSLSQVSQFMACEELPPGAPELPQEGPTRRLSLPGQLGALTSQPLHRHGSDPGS
row,SMILES,"hERG current change (%, negative = inhibition) at 1uM [%]"
1,CC1CC1C(=O)Nc1nc(-c2ccccn2)cs1 (centres unmarked),10.1
2,O=C(NCc1ccc(-c2nc3ccccc3s2)cc1)c1ccc(Br)o1,16
3,CSc1ccccc1NC(=O)c1cnc2n(c1=O)CCS2,11.8
4,CCOC(=O)c1ccc(Nc2nc(N3CCOCC3)nc(N3CCOCC3)n2)cc1.Cl,26.5
5,COc1cccc(NC(=O)CCC(=O)N2CC(C)Oc3ccc(C)cc32)c1 (centres unmarked),15.1
6,COc1ccccc1CNC(=O)CCC(=O)N1CC(C)Sc2ccccc21 (centres unmarked),0.487
7,O=C(NCc1ccccc1Cl)C(=O)NCC1OCCN1S(=O)(=O)c1cccs1 (centres unmarked),-0.171
8,O=C(NC(=S)NCc1ccco1)c1cccc(Cl)c1,11.1
9,O=C(N/N=C/c1ccc(Br)o1)c1ccc2c(c1)OCCO2,9.58
10,Cc1onc(-c2c(F)cccc2Cl)c1C(=O)N1CCN(S(C)(=O)=O)CC1,-4.91
11,O=C1C(C2=NC(c3ccccn3)C3C(=O)N(c4ccc(Cl)cc4Cl)C(=O)C23)=C(O)c2ccccc21 (centres unmarked),5.49
12,C=CCNC(=O)c1oc2ccc(S(=O)(=O)N(CC)CC)cc2c1C,8.48
13,COc1ccc(S(=O)(=O)NCCc2ccc(F)cc2)cc1,7.42
14,CCOc1cccc(CN2CCC(Oc3ccc(C(=O)N4CCCC4)cc3)CC2)c1,5.17
15,Cc1nnsc1C(=O)N/N=C/c1c(F)cccc1Cl,8.96
16,CC(OC(=O)/C=C/c1cccs1)C(=O)NC1CCCCC1C (centres unmarked),17
17,O=C(N/N=C/c1cccs1)c1ccc(-n2cccc2)cc1,20.9
18,COc1ccc(NC(=O)N2c3ccc(OC)cc3C(C)=CC2(C)C)cc1,12.8
19,CC(=O)c1ccc(N(CC(=O)NCc2ccc3c(c2)OCO3)C(=O)c2csnn2)cc1,-0.552
20,Cc1cc(C(=O)OCC(=O)Nc2c(Cl)cccc2C(F)(F)F)c(C)o1,15.8
21,Cc1ncc([N+](=O)[O-])n1S(=O)(=O)c1cc(Br)ccc1Br,13
22,Cc1nn(CC(=O)Nc2ccc(S(=O)(=O)N(C)C)cc2)c(C)c1[N+](=O)[O-],-0.141

row,SMILES,"hERG current change (%, negative = inhibition) at 1uM [%]"
1,COc1cccc(NC(=O)CSc2nnnn2C(C)C)c1,7.88
2,O=C(O)C(=O)O.OC(CNCc1ccc(Cl)cc1)COc1ccccc1 (centres unmarked),7.68
3,O=C(NCCCc1ccccc1)c1ccccc1,2.8
4,CC1(C)C(=O)N(c2ccccc2F)C(=O)c2ccccc21,8.36
5,Cc1cc(C(=O)CN2C(=O)NC(C)(c3cccc(Br)c3)C2=O)c(C)n1Cc1ccco1 (centres unmarked),8.81
6,Cn1cccc1Cc1nnc(SCC(=O)NCC2CCCO2)n1C (centres unmarked),12.4
7,CN(Cc1nccs1)C(=O)C1CCC(=O)N(CCc2ccc(Cl)cc2)C1 (centres unmarked),-49.9
8,Cc1cc(N)n(-c2ccc(S(=O)(=O)N3CCOCC3)cc2[N+](=O)[O-])n1,-2.54
9,Cc1ccccc1OCCC(=O)OCC(=O)Nc1c(C)nn(-c2ccccc2)c1C,14.6
10,Cc1ccc(S(=O)(=O)N(C)CC(=O)OCC(=O)NC(=O)Nc2ccc3c(c2)OCCO3)cc1,17.8
11,CC(=O)Nc1cccc(N(C)C)c1,4.93
12,O=C(NC(c1ccccc1)C(Cl)Cl)c1ccccc1 (centres unmarked),10.2
13,COc1ccc(OC(=O)/C=C/c2ccc([N+](=O)[O-])cc2)cc1,11.8
14,COC(=O)c1ccc(/C=C/c2c(-c3ccsc3)sc3ccccc23)cc1,16.7
15,Cc1ccsc1C(=O)OCC(=O)N1CCOCC1,9.96
16,O=C(c1ccc2[nH]ccc2c1)N1CCCC(Nc2ccccc2)C1 (centres unmarked),11.3
17,CCC(CC)C(=O)Nc1c(C(=O)N2CCN(c3ccccc3)CC2)oc2ccccc12,10.8
18,O=C1C2C3C=CC(CNS(=O)(=O)c4ccccc4[N+](=O)[O-])(O3)C2C(=O)N1c1ccccc1 (centres unmarked),8.01
19,C=CCc1cccc2cc(C(=O)NCc3cccnc3)c(=O)oc12,2.43
20,C#CCNC(=O)[C@H](Cc1ccc(C(=O)c2ccccc2)cc1)NC(=O)OC(C)(C)C,18.7
21,COc1ccc(NS(=O)(=O)c2ccc(N3CCCC3)c(N)c2)cc1,18.1
22,O=C(N/N=C/c1ccccc1OC(=O)c1ccc2c(c1)OCO2)c1cccc(F)c1,14.3

row,SMILES,"hERG current change (%, negative = inhibition) at 1uM [%]"
1,COc1ccc(C)cc1NS(=O)(=O)c1ccc(-c2cnc(C3CC3)o2)cc1,-9.89
2,CC(=O)c1ccc(OCC(=O)NCC(c2ccco2)N2CCCCC2)cc1 (centres unmarked),4.01
3,CCc1ccc(NC(=O)Cc2ccc(NC3=NC4CS(=O)(=O)CC4S3)cc2)cc1 (centres unmarked),8.88
4,COc1ccc(O)c(/C=C(\C#N)C(=O)Nc2cccnc2)c1,14
5,O=C(COc1ccc2c3c(c(=O)oc2c1)CCCC3)NCCCN1CCCC1=O,9.4
6,Nc1nnc(-c2ccc(Cl)c(Cl)c2)s1,8.93
7,CN(/N=C/c1c[nH]c2ccccc12)c1cnn(-c2ccc(F)c(Cl)c2)c(=O)c1Cl,-0.686
8,CCOC(=O)N1CCN(C(=O)CS(=O)Cc2nc(-c3cccc(C)c3)oc2C)CC1 (centres unmarked),11.8
9,Cc1nn(CCc2nn[nH]n2)c2nc(-c3ccccc3)cc(C(F)(F)F)c12,4.83
10,O=C(NCc1ccccc1)C1CCCN(S(=O)(=O)c2cccnc2)C1 (centres unmarked),4.88
11,COC(=O)C1=C(C)NC(=O)NC1c1ccc(-c2ccc(Cl)cc2)o1 (centres unmarked),10.1
12,Cc1c(C(=O)O)sc2nc(CSc3ncc(C(F)(F)F)cc3Cl)[nH]c(=O)c12,10.7
13,CC(C)(C)n1nc2c(c1NC(=O)c1c(F)cccc1F)CS(=O)(=O)C2,11.5
14,O=C(Nc1ccc(Br)cc1Cl)Nn1cnnc1,-1.72
15,Fc1ccc(-c2csc3ncnc(N4CCN(c5ccccc5)CC4)c23)cc1,15.3
16,O=C(Nc1cccc(S(=O)(=O)NC2=NCCCCC2)c1)c1cccnc1Cl,13
17,N#Cc1ccc(CN2C(=O)NC3(CCCCCC3)C2=O)cc1,-8.38
18,CC(C)CC(NC(=O)OC(C)(C)C)C(=O)NC(C(=O)N1CCCC1C(N)=O)C(C)C (stereo not drawn) (Boc-Leu-Val-Pro-NH2; configuration not given here),-5.09
19,O=C(CNC(=O)c1cccnc1)N/N=C/c1cc(Br)c(O)c(Br)c1,12.6
20,CN(C)C(=O)CSc1nc2ccccc2n1CC(=O)N1CCN(c2ccccc2)CC1,9.65
21,COc1ccc(OCC(=O)N2CCC(n3nccc3NC(=O)C3CC3)CC2)cc1,-1.98
22,COc1cc(NC(=O)CN2C(=O)NC(c3ccccc3)(c3ccccc3)C2=O)cc(OC)c1,7.32

row,SMILES,"hERG current change (%, negative = inhibition) at 1uM [%]"
1,Cc1ccc(CNC(=O)/C(C#N)=C/c2ccc(C)s2)cc1,8.94
2,Cc1cc2c(sc3ccccc32)c(C)n1.Cl,7.1
3,Cl.OC(COc1ccc2c(c1)OCO2)CN1CCN(c2ccc(F)cc2)CC1 (centres unmarked),-35.3
4,O=C(CCNC(=O)c1ccccc1Cl)Nc1nc2ccccc2s1,16.9
5,COc1ccc(/C=N/NC(=O)c2cc(C)on2)c2ccccc12,6.71
6,O=C(CN1CCN(C(=O)c2ccco2)CC1)Nc1ccc(Cl)c(S(=O)(=O)N2CCOCC2)c1,2.19
7,CC(C)COc1cccc(C(=O)N2CCN(C(=O)c3ccco3)CC2)c1,-1.93
8,Cc1ccc(CNC(=O)NC23CC4CC(CC(C4)C2)C3)cc1,12.4
9,CCNc1nc(SCC(=O)OC)nc(N(C)C)n1,-1.18
10,Cc1ccc(S(=O)(=O)Nc2ccc3c(c2)nc(CCN2CCOCC2)n3C)cc1,6.29
11,Cc1cc(C)c(S(=O)(=O)NCC(c2cccnc2)N2CCN(Cc3ccccc3)CC2)c(C)c1 (centres unmarked),-42.6
12,CCCCn1c(N)c(N(CCOC)C(=O)c2cc(-c3ccccc3)nc3ccccc23)c(=O)[nH]c1=O,-14.9
13,COc1ccc(C(=O)COC(=O)Cn2nnc3ccccc32)cc1Br,9.53
14,C/C(=N/OC(=O)C1CC1)c1cc(-c2ccc(Cl)cc2)no1,-5.72
15,CC(=O)c1ccc(N2CCN(C(=O)c3ccc(Cn4c(=S)[nH]c5ccc(N6CCOCC6)cc5c4=O)cc3)CC2)cc1,3.21
16,CN(C)/C=N/c1nc2nccc(-c3cccnc3)n2n1,4.7
17,NS(=O)(=O)c1ccc(CCNC(=O)CNC(=O)COc2ccccc2)cc1,13.8
18,CN1CCN(S(=O)(=O)c2cccc(C(=O)Oc3cccc(Br)c3)c2)CC1,10.1
19,COc1ccc(C2CC(=O)CC(=O)C2n2cncn2)cc1 (centres unmarked),7.43
20,COc1cc(CN(C)CCc2ccccc2)ccc1OCc1ccccc1,-12.2
